Measured values: the supplement of paper PMC12340641
The full ranking holds about 1,000 compounds; the median of “relative growth recovery (pomalidomide 10 uM = 100%, DMSO = 0%)” is about -1.6, and the highest 2% start at about 21. This is one part of the list.

tested on: HEK293FT dCK*-IKZF1; assay: relative growth recovery (pomalidomide 10 uM = 100%, DMSO = 0%); higher = more growth rescue (IKZF1 fusion degradation); conditions: compound concentration: 5 uM; AraC concentration: 0.3 uM; overnight pretreatment + 4 days AraC
Procedure: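 Growth recovery screen of the molecular-glue-like (Specs) library. HEK293FT cells expressing a dCK*-IKZF1 fusion (primary) or dCK* alone (counter) were pretreated overnight with compound at 5 uM, then given 0.3 uM AraC for 4 days. Hoechst nuclei were counted by imaging. Primary: normalised to pomalidomide (100%) and DMSO (0%), mean of 2 replicates. Counter: normalised to no-AraC (100%) and AraC+DMSO (0%), single replicate.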

Row | SMILES | relative growth recovery
1 | Cc1cnc(Nc2cccc(C3CCCN3C(=O)CCOc3ccccc3C)n2)s1 (stereo not drawn) | -5.03%
2 | CC(=O)Nc1ccc(-c2csc(Nc3ccccn3)n2)cc1 | 2.7%
3 | Cc1cc(C)c2[nH]c3nc(SCC(=O)Nc4ccc(F)cc4)nnc3c2c1 | -9.18%
4 | Cn1nccc1/C=C/C(=O)N1CCCC1c1csc(Nc2ccccn2)n1 (stereo not drawn) | 2.75%
5 | Cc1cnc(Nc2cccc(C3CCN(C(=O)C45CC6CC(CC(O)(C6)C4)C5)CC3)n2)s1 | -15.2%
6 | COCC(=O)N1CCCC1c1cccc(Nc2nccs2)n1 (stereo not drawn) | -3.5%
7 | Cc1cc(C)c2[nH]c3nc(SCC(=O)Nc4cccc(Cl)c4)nnc3c2c1 | -10%
8 | Cc1cc(C)nc(NS(=O)(=O)c2ccc(NC(=O)Cn3cnc4ccccc4c3=O)cc2)n1 | 0.065%
9 | CCCOc1ccccc1C(=O)Nc1ccc(S(=O)(=O)Nc2nc(C)cc(C)n2)cc1 | -1.94%
10 | CCS(=O)(=O)Nc1ccc(S(=O)(=O)Nc2nc(C)cc(C)n2)cc1 | -4.85%
11 | CC(C)(C)C(=O)N1CCOC(c2cccc(Nc3ncc(-c4cccnc4)s3)n2)C1 (stereo not drawn) | 13.5%
12 | Cc1cnc(Nc2cccc(C3CCN(CC(=O)NCc4ccccn4)CC3)n2)s1 | -0.73%
13 | CCCc1cnc(Nc2cccc(C3(C(N)=O)CCN(C(=O)C4CCCCC4)CC3)n2)s1 | -11.7%
14 | CNC(=O)C(c1cccc(Nc2ncc(C)s2)n1)C1CCN(C(=O)[C@H](CC(C)C)NC(=O)OC(C)(C)C)CC1 (stereo partly drawn) | -1.13%
15 | NC1(C(=O)N2CCC(c3cccc(Nc4ncc(Cl)s4)n3)CC2)CC1 | -20.3%
16 | Cc1cc(NS(=O)(=O)c2ccc(NC(=O)c3ccccc3Cl)cc2)nc(C)n1 | 1.01%
17 | CC(C)N(C(=O)CN1CCOC(c2cccc(Nc3nccs3)n2)C1)C1CCCCC1 (stereo not drawn) | -2.24%
18 | Cc1cnc(Nc2cccc(C3CN(C(=O)C4CC=CCC4)CCO3)n2)s1 (stereo not drawn) | -8.73%
19 | COC(=O)C(c1cccc(Nc2ncc(C)s2)n1)C1CCN(C(=O)C2CCCCC2)CC1 (stereo not drawn) | 5.28%
20 | Cc1ccnc(NS(=O)(=O)c2ccc(NC(=O)CCCOc3ccccc3)cc2)n1 | 0.035%
21 | COc1cccc(OC)c1C(=O)Nc1ccc(S(=O)(=O)Nc2cc(C)nc(C)n2)cc1 | 11.3%
22 | Cc1cnc(Nc2cccc(C3CN(C(=O)COc4ccccc4)CCO3)n2)s1 (stereo not drawn) | -5.58%
23 | CCCCc1cnc(Nc2cccc(C3CCN(C(=O)[C@@H]4CCCCN4CCO)CC3)n2)s1 | -11%
24 | Cc1ccc(OCCCC(=O)Nc2ccc(S(=O)(=O)Nc3nc(C)cc(C)n3)cc2)cc1 | -0.85%

Row | SMILES | relative growth recovery
25 | COc1cc(NS(=O)(=O)c2ccc(Nc3nc(-c4sc(N)nc4C)cs3)cc2)nc(OC)n1 | -3.96%
26 | Nc1ccc(S(=O)(=O)Nc2nccc(/C=C/c3ccccc3F)n2)cc1 | -0.59%
27 | O=C(/C=C/c1ccccc1)N1CCC(c2csc(Nc3ccc(F)cn3)n2)CC1 | -2.47%
28 | CC(C)(C)C(=O)N1CCOC(c2cccc(Nc3ncc(Cc4ccccc4Cl)s3)n2)C1 (stereo not drawn) | 1.07%
29 | CCCC(=O)Nc1ccc(S(=O)(=O)Nc2ncccn2)cc1 | 0.76%
30 | CN(CCC(=O)N1CCOC(c2cccc(Nc3nccs3)n2)C1)c1cccc(F)c1 (stereo not drawn) | -1.83%
31 | CCOCc1ccc(C(=O)N2CCC(c3cccc(Nc4ncc(C)s4)n3)CC2)cc1 | 29.5%
32 | Cc1cc(NS(=O)(=O)c2ccc(NC(=O)C(C)C)cc2)nc(C)n1 | -8.98%
33 | COc1ccc(C(=O)Nc2ccc(S(=O)(=O)Nc3nccc(C)n3)cc2)cc1[N+](=O)[O-] | 2.66%
34 | Cc1cnc(Nc2cccc(C3CCN(C(=O)C4CC(=O)OC45CCCCC5)CC3)n2)s1 (stereo not drawn) | -16.7%
35 | CCCC(C)C(=O)Nc1ccc(S(=O)(=O)Nc2nccc(C)n2)cc1 (stereo not drawn) | 2.04%
36 | CN(CCC(=O)N1CCCC1c1cccc(Nc2nccs2)n1)c1ccccc1F (stereo not drawn) | 7.22%
37 | Cc1cc(C)nc(NS(=O)(=O)c2ccc(NC(=O)C(C)C)cc2)n1 | -7.38%
38 | Cc1cc(C)nc(NS(=O)(=O)c2ccc(NC(=S)NC(=O)c3cccnc3)cc2)n1 | -4.47%
39 | Cc1cc(C)nc(NS(=O)(=O)c2ccc(NC(=O)CSc3nc4c(cc3C#N)CCCCC4)cc2)n1 | -5.67%
40 | CCOC(=O)C(=O)Nc1ccc(S(=O)(=O)Nc2ncccn2)cc1 | 0.66%
41 | Cc1cc(C)nc(NS(=O)(=O)c2ccc(NC(=O)c3cccs3)cc2)n1 | -4.97%
42 | Cc1nc(/C=C/C(=O)N2CCC(c3cc4ccccc4c(Nc4nccs4)n3)CC2)cs1 | -17.8%
43 | COc1ccc(S(=O)(=O)Nc2cccc3cn[nH]c23)c(C)c1C | -0.345%
44 | Cc1nc(Nc2cccc(C3CCN(C(=O)C4CC=CCC4)CC3)n2)sc1C (stereo not drawn) | -3.09%
45 | Cc1cnc(Nc2cccc(C3CCCN3C(=O)c3nccc4ccccc34)n2)s1 (stereo not drawn) | 2.39%
46 | COc1ccc(C(=O)Nc2ccc(S(=O)(=O)Nc3nccc(C)n3)cc2)cc1 | -3.71%
47 | Cc1cc(C)c(C(=O)Nc2ccc(S(=O)(=O)Nc3cc(C)nc(C)n3)cc2)c(C)c1 | -1.16%
48 | Cc1cc(C)nc(NS(=O)(=O)c2ccc(NC(=O)c3ccccc3C)cc2)n1 | 2.68%
